Test results as given in the supplement of paper PMC8728848.
The other results are listed elsewhere or left out.

Tests used:
Test in all cases: glycan array binding signal (z-score within array); higher = stronger binding
Conditions in all cases: glycan notation: IUPAC condensed, linker removed
Fuc(a1-2)Gal = biological target: Fuc(a1-2)Gal
Summary of the method: (§1)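 Glycan array data came from 3228 arrays in the Consortium for Functional Glycomics database, and only arrays with an available protein sequence were kept. Glycan names were put into IUPAC-condensed notation, and columns mapping to the same glycan were averaged. The binding signal is a within-array Z-score, averaged across arrays of one protein sequence run at different concentrations or buffers and across linkers. A negative Z-score can be read as non-binding.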

Fuc(a1-2)Gal(b1-3)GalNAc = biological target: Fuc(a1-2)Gal(b1-3)GalNAc
Summary of the method: as §1

[1] = biological target: Fuc(a1-2)Gal(b1-3)GalNAc(a1-3)[Fuc(a1-2)]Gal(b1-4)Glc
Summary of the method: as §1

[2] = biological target: Fuc(a1-2)Gal(b1-3)GalNAc(a1-3)[Fuc(a1-2)]Gal(b1-4)GlcNAc
Summary of the method: as §1

[3] = biological target: Fuc(a1-2)Gal(b1-3)GalNAc(b1-3)Gal
Summary of the method: as §1

[4] = biological target: Fuc(a1-2)Gal(b1-3)GalNAc(b1-3)Gal(a1-4)Gal(b1-4)Glc
Summary of the method: as §1

[5] = biological target: Fuc(a1-2)Gal(b1-3)GalNAc(b1-4)[Neu5Ac(a2-3)]Gal(b1-4)Glc
Summary of the method: as §1

Fuc(a1-2)Gal(b1-3)GlcNAc = biological target: Fuc(a1-2)Gal(b1-3)GlcNAc
Summary of the method: as §1

[6] = biological target: Fuc(a1-2)Gal(b1-3)GlcNAc(b1-2)Man(a1-3)[Fuc(a1-2)Gal(b1-3)GlcNAc(b1-2)Man(a1-6)]Man(b1-4)GlcNAc(b1-4)GlcNAc
Summary of the method: as §1

[7] = biological target: Fuc(a1-2)Gal(b1-3)GlcNAc(b1-3)Gal(b1-4)Glc
Summary of the method: as §1

[8] = biological target: Fuc(a1-2)Gal(b1-3)GlcNAc(b1-3)[Fuc(a1-3)[Gal(b1-4)]GlcNAc(b1-6)]Gal(b1-4)Glc
Summary of the method: as §1

[9] = biological target: Fuc(a1-2)Gal(b1-3)[Fuc(a1-4)]GlcNAc
Summary of the method: as §1

[10] = biological target: Fuc(a1-2)Gal(b1-3)[Fuc(a1-4)]GlcNAc(b1-2)Man(a1-3)[Fuc(a1-2)Gal(b1-3)[Fuc(a1-4)]GlcNAc(b1-2)Man(a1-6)]Man(b1-4)GlcNAc(b1-4)GlcNAc
Summary of the method: as §1

[11] = biological target: Fuc(a1-2)Gal(b1-3)[Fuc(a1-4)]GlcNAc(b1-3)[Fuc(a1-3)[Gal(b1-4)]GlcNAc(b1-6)]Gal(b1-4)Glc
Summary of the method: as §1

[12] = biological target: Fuc(a1-2)Gal(b1-3)[Fuc(a1-4)]GlcNAc(b1-3)[Gal(b1-4)GlcNAc(b1-6)]Gal(b1-4)Glc
Summary of the method: as §1

Fuc(a1-2)Gal(b1-4)Glc = biological target: Fuc(a1-2)Gal(b1-4)Glc
Summary of the method: as §1

Fuc(a1-2)Gal(b1-4)Glc6S = biological target: Fuc(a1-2)Gal(b1-4)Glc6S
Summary of the method: as §1

Fuc(a1-2)Gal(b1-4)GlcNAc = biological target: Fuc(a1-2)Gal(b1-4)GlcNAc
Summary of the method: as §1

[13] = biological target: Fuc(a1-2)Gal(b1-4)GlcNAc(b1-2)Man(a1-3)[Fuc(a1-2)Gal(b1-4)GlcNAc(b1-2)Man(a1-6)]Man(b1-4)GlcNAc(b1-4)GlcNAc
Summary of the method: as §1

[14] = biological target: Fuc(a1-2)Gal(b1-4)GlcNAc(b1-3)Gal(b1-4)GlcNAc
Summary of the method: as §1

[15] = biological target: Fuc(a1-2)Gal(b1-4)GlcNAc(b1-3)Gal(b1-4)GlcNAc(b1-3)Gal(b1-4)GlcNAc
Summary of the method: as §1

[16] = biological target: Fuc(a1-2)Gal(b1-4)GlcNAc(b1-3)GalNAc
Summary of the method: as §1

[17] = biological target: Fuc(a1-2)Gal(b1-4)GlcNAc6S
Summary of the method: as §1

[18] = biological target: Fuc(a1-2)Gal(b1-4)[Fuc(a1-3)]GlcNAc
Summary of the method: as §1

[19] = biological target: Fuc(a1-2)Gal(b1-4)[Fuc(a1-3)]GlcNAc(b1-2)Man(a1-3)[Fuc(a1-2)Gal(b1-4)[Fuc(a1-3)]GlcNAc(b1-2)Man(a1-6)]Man(b1-4)GlcNAc(b1-4)GlcNAc
Summary of the method: as §1

[20] = biological target: Fuc(a1-2)Gal(b1-4)[Fuc(a1-3)]GlcNAc(b1-3)Gal(b1-4)[Fuc(a1-3)]GlcNAc
Summary of the method: as §1

[21] = biological target: Fuc(a1-2)Gal(b1-4)[Fuc(a1-3)]GlcNAc(b1-3)Gal(b1-4)[Fuc(a1-3)]GlcNAc(b1-3)Gal(b1-4)[Fuc(a1-3)]GlcNAc
Summary of the method: as §1

Fuc(a1-2)Gal6S(b1-4)Glc = biological target: Fuc(a1-2)Gal6S(b1-4)Glc
Summary of the method: as §1

[22] = biological target: Fuc(a1-2)Gal6S(b1-4)Glc6S
Summary of the method: as §1

[23] = biological target: Fuc(a1-2)Gal6S(b1-4)GlcNAc
Summary of the method: as §1

B1: Mincle (Homo sapiens), Q9ULY5 (protein)
chain: MNSSKSSETQCTERGCFSSQMFLWTVAGIPILFLSACFITRCVVTFRIFQTCDEKKFQLPENFTELSCYNYGSGSVKNCCPLNWEYFQSSCYFFSTDTISWALSLKNCSAMGAHLVVINSQEEQEFLSYKKPKMREFFIGLSDQVVEGQWQWVDGTPLTKSLSFWDVGEPNNIATLEDCATMRDSSNPRQNWNDVTCFLNYFRICEMVGINPLNKGKSL
**Q.** B1 was tested. Which “glycan array binding signal (z-score)” value (Fuc(a1-2)Gal) did it give?
**A.** 0

**Q.** And the “glycan array binding signal (z-score)” value (Fuc(a1-2)Gal(b1-3)GalNAc)?
**A.** -0.399

**Q.** What about the “glycan array binding signal (z-score)” value [1] of the same binder?
**A.** 0.081

**Q.** And the “glycan array binding signal (z-score)” value [2]?
**A.** 0.077

**Q.** What about the “glycan array binding signal (z-score)” value [3] of the same binder?
**A.** -0.282

**Q.** And the “glycan array binding signal (z-score)” value [4]?
**A.** -0.28

**Q.** What about the “glycan array binding signal (z-score)” value [5] of the same binder?
**A.** -0.174

**Q.** What about the “glycan array binding signal (z-score)” value (Fuc(a1-2)Gal(b1-3)GlcNAc) of the same binder?
**A.** -0.177

**Q.** What about the “glycan array binding signal (z-score)” value [6] of the same binder?
**A.** 0.656

**Q.** What about the “glycan array binding signal (z-score)” value [7] of the same binder?
**A.** -0.221

**Q.** And the “glycan array binding signal (z-score)” value [8]?
**A.** 0.093

**Q.** And the “glycan array binding signal (z-score)” value [9]?
**A.** -0.224

**Q.** And the “glycan array binding signal (z-score)” value [10]?
**A.** 1.79

**Q.** What about the “glycan array binding signal (z-score)” value [11] of the same binder?
**A.** 0.347

**Q.** What about the “glycan array binding signal (z-score)” value [12] of the same binder?
**A.** -0.23

**Q.** And the “glycan array binding signal (z-score)” value (Fuc(a1-2)Gal(b1-4)Glc)?
**A.** -0.358

**Q.** What about the “glycan array binding signal (z-score)” value (Fuc(a1-2)Gal(b1-4)Glc6S) of the same binder?
**A.** 0.195

**Q.** And the “glycan array binding signal (z-score)” value (Fuc(a1-2)Gal(b1-4)GlcNAc)?
**A.** -0.329

**Q.** What about the “glycan array binding signal (z-score)” value [13] of the same binder?
**A.** 1.64

**Q.** And the “glycan array binding signal (z-score)” value [14]?
**A.** -0.419

**Q.** And the “glycan array binding signal (z-score)” value [15]?
**A.** 0.144

**Q.** What about the “glycan array binding signal (z-score)” value [16] of the same binder?
**A.** -0.361

**Q.** What about the “glycan array binding signal (z-score)” value [17] of the same binder?
**A.** 0.321

**Q.** And the “glycan array binding signal (z-score)” value [18]?
**A.** -0.37

**Q.** And the “glycan array binding signal (z-score)” value [19]?
**A.** 0.167

**Q.** And the “glycan array binding signal (z-score)” value [20]?
**A.** -0.341

**Q.** What about the “glycan array binding signal (z-score)” value [21] of the same binder?
**A.** -0.204

**Q.** And the “glycan array binding signal (z-score)” value (Fuc(a1-2)Gal6S(b1-4)Glc)?
**A.** -0.325

**Q.** And the “glycan array binding signal (z-score)” value [22]?
**A.** -0.076

**Q.** And the “glycan array binding signal (z-score)” value [23]?
**A.** -0.106
